# ± gives the standard deviation of the averaged measurements. The full ranking holds about 33,000 sequences; the median of “E-score (dimensionless, -0.5 to 0.5)” is about -0.049, and the highest 2% start at about 0.37. The list shows a part of the results.
# System: T1, PmTbr T-box DNA-binding domain (GST fusion)
# T1 sequence: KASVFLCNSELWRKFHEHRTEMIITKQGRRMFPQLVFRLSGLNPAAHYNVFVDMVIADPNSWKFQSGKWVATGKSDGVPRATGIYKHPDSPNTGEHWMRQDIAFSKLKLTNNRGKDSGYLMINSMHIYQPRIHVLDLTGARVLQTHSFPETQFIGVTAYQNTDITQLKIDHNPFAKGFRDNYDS
# Assay: PBM E-score of 8-mer (E-score (dimensionless, -0.5 to 0.5)); Tbr is Tbrain of the sea star Patiria miniata (Pm) or the sea urchin Strongylocentrotus purpuratus (Sp); higher = stronger binding preference; most listed sequences are background and not binding sites
# Conditions: the construct has about 5 more residues each side
# Outline: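 Primer extension turned Universal Agilent oligonucleotide arrays double-stranded. They were incubated with 200 nM protein in PBS (pH 7.5); the protein was a GST-fused Tbr T-box DNA-binding domain expressed in BL21 E. coli at 20 °C and purified on glutathione. Every ungapped 8-mer was scored from the scanned, quantified probe intensities, and the Universal PBM Analysis Suite gave each an enrichment E-score averaged over duplicate arrays.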
row,Sequence,PBM E-score of 8-mer
1,AGACGTTC,-0.0953 ± 0.046
2,ACCTAAAG,0.121 ± 0.072
3,CCAAACCG,0.0892 ± 0.027
4,GTCAAGAC,0.135 ± 0.0076
5,GACCGCAC,-0.0153 ± 0.014
6,CTTATCGC,0.16 ± 0.018
7,TGGCACCA,0.377 ± 0.0055
8,ACGGTTCC,-0.119 ± 0.0017
9,ATTGTGGG,0.0127 ± 0.025
10,GCAGTCCA,-0.00679 ± 0.0092
11,AGCGCGAT,0.291 ± 0.0076
12,AAGGTCTG,-0.0553 ± 0.035
13,ATTTCGCA,0.378 ± 0.0045
14,CCAATTCG,0.0374 ± 0.038
15,AGTAAGCC,-0.135 ± 0.0042
16,CGTAAGTA,0.176 ± 0.0052
17,AGATAAGC,-0.0465 ± 0.04
18,CTCACATC,0.3693 ± 0.0021
19,CCCAAAGG,-0.114 ± 0.067
20,AGGGAGAA,-0.0325 ± 0.042
21,CAACCAAA,-0.0758 ± 0.01
22,ACAAGTAG,0.16 ± 0.052
23,AACTCTAC,0.118 ± 0.07
24,CCACTACA,-0.0197 ± 0.026
25,CCTCTTAA,-0.115 ± 0.057

row,Sequence,PBM E-score of 8-mer
1,CATTGCTA,-0.0364 ± 0.011
2,AAATGCGC,0.142 ± 0.023
3,GTGCAATA,0.195 ± 0.0037
4,AACCGTTA,0.0466 ± 0.0096
5,GACCCATA,-0.236 ± 0.058
6,GATAATGA,-0.0927 ± 0.0056
7,AGGTGTCC,0.45 ± 0.0092
8,AAGAAAGT,-0.0301 ± 0.18
9,CATCGTAA,-0.18 ± 0.048
10,ACTCTATA,0.0175 ± 0.018
11,GGTCATCA,-0.0206 ± 0.077
12,ACTCACGC,0.244 ± 0.029
13,CCTGAGAC,-0.195 ± 0.064
14,ACGATCGG,0.0124 ± 0.13
15,CGCCGTTC,-0.0039 ± 0.009
16,CATATATA,-0.244 ± 0.097
17,GAGCTACA,0.037 ± 0.017
18,AGGGACCC,-0.0956 ± 0.013
19,AGTAAAGC,-0.189 ± 0.033
20,TCCTTTCA,-0.0321 ± 0.055
21,AACAGGAC,-0.0105 ± 0.002
22,AACCGCCG,-0.11 ± 0.015
23,AGACAATG,-0.125 ± 0.066
24,CGCTCAGA,-0.0805 ± 0.018
25,CCTTCGGA,-0.0659 ± 0.042

row,Sequence,PBM E-score of 8-mer
1,AACTGCCA,0.105 ± 0.01
2,AGCGCATA,0.0418 ± 0.028
3,CTTAGGTC,-0.168 ± 0.013
4,AGCATACG,-0.02 ± 0.06
5,ATCCCACG,-0.0853 ± 0.066
6,CCTATAGC,-0.125 ± 0.021
7,ACGTCATA,-0.0623 ± 0.081
8,CTAATATC,-0.139 ± 0.035
9,GCCAGATA,-0.105 ± 0.0025
10,CCGTCAGC,0.202 ± 0.0074
11,ACCATCAA,-0.121 ± 0.008
12,CTCACTAA,0.169 ± 0.038
13,GCACAGTA,-0.0282 ± 0.022
14,CGACTTTC,0.1558 ± 0.00021
15,CATGGGAC,-0.232 ± 0.096
16,AACGGTCA,0.0487 ± 0.039
17,GCAGGGCC,-0.204 ± 0.064
18,GATGGCAA,0.0754 ± 0.075
19,GGACGGAC,-0.168 ± 0.013
20,AGTCCTTG,-0.111 ± 0.013
21,CGCCGCTA,0.0655 ± 0.029
22,AGTGCCCA,-0.131 ± 0.0019
23,TAAAGCTA,-0.112 ± 0.15
24,GCAAGAAA,-0.0627 ± 0.15
25,ATCGTATC,-0.00948 ± 0.015

row,Sequence,PBM E-score of 8-mer
1,CGCAAGAA,0.0887 ± 0.099
2,CCGAGACG,-0.201 ± 0.084
3,AACTGCCG,0.0601 ± 0.068
4,AATACCGG,-0.294 ± 0.068
5,ATCGTCAG,-0.05 ± 0.032
6,ATCACTGA,0.0524 ± 0.089
7,CTACTGCA,-0.111 ± 0.053
8,CGCCTGTC,0.303 ± 0.026
9,CAGTCAGG,-0.27 ± 0.0037
10,GAAATATA,0.121 ± 0.078
11,CAAGAGAG,-0.303 ± 0.023
12,TAGATACA,-0.182 ± 0.028
13,AAGGCGTC,0.354 ± 0.021
14,GTCGAGGA,-0.0465 ± 0.047
15,ACCATGCC,-0.147 ± 0.06
16,AACCACAG,-0.0542 ± 0.027
17,CAGGCCGG,-0.115 ± 0.0091
18,GCCGTACC,-0.195 ± 0.026
19,ACGAAATA,0.0613 ± 0.011
20,CAGTCCGA,-0.0658 ± 0.039
21,CCTGCCCA,-0.029 ± 0.021
22,CCGTGGAG,0.0713 ± 0.0076
23,CATGCGAA,0.108 ± 0.046
24,CTGTAAAG,0.101 ± 0.024
25,CCCTCATC,-0.186 ± 0.031

row,Sequence,PBM E-score of 8-mer
1,CCTCGCAG,0.0735 ± 0.061
2,ACGCCAAT,0.125 ± 0.037
3,ATTGTGAG,0.2213 ± 0.00029
4,AATAGACG,-0.214 ± 0.072
5,CCGCGGGC,-0.0683 ± 0.044
6,CTAAATGA,-0.136 ± 0.07
7,AAGCCCTC,-0.289 ± 0.054
8,TCATAAAA,-0.209 ± 0.017
9,AAAGTGGT,0.106 ± 0.042
10,ACACATAC,0.297 ± 0.021
11,ATCAAGCC,-0.0171 ± 0.049
12,CAAAACGG,-0.0396 ± 0.096
13,GCTCTTCC,-0.158 ± 0.058
14,AAACCGAC,0.0116 ± 0.036
15,ATCTCTGA,-0.257 ± 0.065
16,CCTAACCG,-0.189 ± 0.08
17,ATTCATCG,0.0107 ± 0.0037
18,CGTGCCGC,0.0781 ± 0.005
19,ACACTGAG,0.134 ± 0.0067
20,ACTTGAAG,-0.0242 ± 0.046
21,CAGAAACA,-0.111 ± 0.013
22,GCAAACTA,-0.0543 ± 0.058
23,AATCCGAT,-0.162 ± 0.013
24,CCAGTGTC,0.0539 ± 0.05
25,GGACTGAA,-0.201 ± 0.039

row,Sequence,PBM E-score of 8-mer
1,AGCGGTTC,-0.111 ± 0.028
2,ACACCTAA,0.463 ± 0.0018
3,ACGGAATG,-0.0642 ± 0.043
4,ACAGATGA,0.00068 ± 0.05
5,AACACCCT,0.433 ± 0.017
6,AAACCAGA,-0.142 ± 0.037
7,ACGGGGAA,-0.205 ± 0.016
8,AGCGATGC,-0.132 ± 0.058
9,ATTGGTAA,-0.202 ± 0.11
10,GCGTGGCC,0.0139 ± 0.02
11,AGAATCAT,-0.0651 ± 0.0097
12,CGGCCTTA,-0.218 ± 0.029
13,ACAAGTGC,0.249 ± 0.005
14,CTCGAGCA,-0.0864 ± 0.015
15,CTTCATCC,-0.303 ± 0.023
16,TTAATCAA,-0.0923 ± 0.11
17,CCGAGACC,-0.383 ± 0.037
18,GTACTATA,-0.135 ± 0.042
19,CAGGAAAC,-0.143 ± 0.015
20,AACTTACG,-0.133 ± 0.018
21,AAGTTGAC,0.188 ± 0.033
22,CATCACCC,0.25 ± 0.032
23,GGAGCAAC,0.0475 ± 0.0065
24,ACAGCGCT,-0.0241 ± 0.069
25,GTGAAAAC,0.3199 ± 0.0029

row,Sequence,PBM E-score of 8-mer
1,AGCGAAGC,-0.0446 ± 0.025
2,CAAAAGCA,-0.0628 ± 0.021
3,GGGAAACC,-0.213 ± 0.011
4,AAATCCGG,-0.0666 ± 0.064
5,GAACCGAA,-0.0968 ± 0.047
6,CGGGGCTC,0.022 ± 0.083
7,AGGTAAAT,-0.129 ± 0.065
8,GGTGATAA,0.413 ± 0.018
9,CGAGGGGA,-0.0811 ± 0.072
10,CGTTAATC,0.111 ± 0.01
11,CTAAACAA,0.063 ± 0.034
12,ATCCCCCG,-0.0123 ± 0.018
13,ACCAACCT,-0.0146 ± 0.0078
14,GCTATTAC,0.0909 ± 0.029
15,GGATGCCA,-0.0435 ± 0.011
16,GGTCAGTA,-0.273 ± 0.033
17,GGGAATAC,-0.1698 ± 0.0012
18,ACAGTCTA,-0.0652 ± 0.07
19,CCACTTGA,0.0559 ± 0.023
20,TAGCACTA,0.281 ± 0.024
21,CACAGGAG,-0.0709 ± 0.032
22,CTCGAACC,-0.074 ± 8.5e-05
